This is one part of the list. Interaction screen of human proteins with wild-type SARS-CoV-2 proteins by split-DHFR complementation in yeast, 1 µg/mL methotrexate. Value = fitness of the pair (three or more lineages) minus that of the viral protein without a human partner, on a scale set by negative (0) and fused positive (1) controls, mean of up to three cultures; higher = more likely to interact. Active = false discovery rate below 0.05 (one-sided t-test) in at least one culture. Nearly all pairs are not hits, and differences among them are mostly noise (correlation between cultures about 0.3); most hits were seen in one culture only. Human sequences are the Swiss-Prot entries looked up by gene name; the clone may be another isoform. NSP2 values were corrected by the authors for a growth advantage. Listed are human proteins with a hit and a random twelfth of the others.

The labels stand for the following.
B1: GMPR, P36959 (protein)
chain: MPRIDADLKLDFKDVLLRPKRSSLKSRAEVDLERTFTFRNSKQTYSGIPIIVANMDTVGTFEMAAVMSQHSMFTAIHKHYSLDDWKLFATNHPECLQNVAVSSGSGQNDLEKMTSILEAVPQVKFICLDVANGYSEHFVEFVKLVRAKFPEHTIMAGNVVTGEMVEELILSGADIIKVGVGPGSVCTTRTKTGVGYPQLSAVIECADSAHGLKGHIISDGGCTCPGDVAKAFGAGADFVMLGGMFSGHTECAGEVFERNGRKLKLFYGMSSDTAMNKHAGGVAEYRASEGKTVEVPYKGDVENTILDILGGLRSTCTYVGAAKLKELSRRATFIRVTQQHNTVFS
B2: GTF2B, Q00403 (protein)
chain: MASTSRLDALPRVTCPNHPDAILVEDYRAGDMICPECGLVVGDRVIDVGSEWRTFSNDKATKDPSRVGDSQNPLLSDGDLSTMIGKGTGAASFDEFGNSKYQNRRTMSSSDRAMMNAFKEITTMADRINLPRNIVDRTNNLFKQVYEQKSLKGRANDAIASACLYIACRQEGVPRTFKEICAVSRISKKEIGRCFKLILKALETSVDLITTGDFMSRFCSNLCLPKQVQMAATHIARKAVELDLVPGRSPISVAAAAIYMASQASAEKRTQKEIGDIAGVADVTIRQSYRLIYPRAPDLFPTDFKFDTPVDKLPQL
B3: GIP, P09681 (protein)
chain: MVATKTFALLLLSLFLAVGLGEKKEGHFSALPSLPVGSHAKVSSPQPRGPRYAEGTFISDYSIAMDKIHQQDFVNWLLAQKGKKNDWKHNITQREARALELASQANRKEEEAVEPQSSPAKNPSDEDLLRDLLIQELLACLLDQTNLCRLRSR
B4: KLHL17, Q6TDP4 (protein)
chain: MQPRSERPAGRTQSPEHGSPGPGPEAPPPPPPQPPAPEAERTRPRQARPAAPMEGAVQLLSREGHSVAHNSKRHYHDAFVAMSRMRQRGLLCDIVLHVAAKEIRAHKVVLASCSPYFHAMFTNEMSESRQTHVTLHDIDPQALDQLVQFAYTAEIVVGEGNVQTLLPAASLLQLNGVRDACCKFLLSQLDPSNCLGIRGFADAHSCSDLLKAAHRYVLQHFVDVAKTEEFMLLPLKQVLELVSSDSLNVPSEEEVYRAVLSWVKHDVDARRQHVPRLMKCVRLPLLSRDFLLGHVDAESLVRHHPDCKDLLIEALKFHLLPEQRGVLGTSRTRPRRCEGAGPVLFAVGGGSLFAIHGDCEAYDTRTDRWHVVASMSTRRARVGVAAVGNRLYAVGGYDGTSDLATVESYDPVTNTWQPEVSMGTRRSCLGVAALHGLLYSAGGYDGASCLNSAERYDPLTGTWTSVAAMSTRRRYVRVATLDGNLYAVGGYDSSSHLATVEKYEPQVNVWSPVASMLSRRSSAGVAVLEGALYVAGGNDGTSCLNSVERYSPKAGAWESVAPMNIRRSTHDLVAMDGWLYAVGGNDGSSSLNSIEKYNPRTNKWVAASCMFTRRSSVGVAVLELLNFPPPSSPTLSVSSTSL

For one test, the target named is SARS-CoV-2 E. The test is described as follows: yeast fitness gain over the viral ORF with no human partner (scaled fitness); higher = more likely to interact. As to the method:
(§1)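 Split mouse DHFR complementation in pooled diploid yeast: human ORFeome clones carry one fragment and viral ORFs the other; barcoded lineages compete in 1 µg/mL methotrexate and fitness is read by barcode sequencing in up to three cultures.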
On to B1, for which the yeast fitness gain was inactive: 0.031.

Consider B2, for which the yeast fitness gain was inactive: 0.0418.

Regarding B3, the yeast fitness gain was inactive: 0.119.

For B4, the yeast fitness gain is inactive: 0.0302.

In the next test the target is SARS-CoV-2 M. The description is as above. As to the method: as §1
For the molecule B1, the yeast fitness gain was inactive: 0.0224.

As to B2, the yeast fitness gain was inactive: 0.0435.

As for B4, the yeast fitness gain is inactive: -0.0528.

Another test has as its target SARS-CoV-2 N. The test is described as above. As to the method:
as §1
Regarding B1, the yeast fitness gain is inactive: 0.0691.

In the case of B2, the yeast fitness gain was inactive: -0.0731.

For the next test, the target named is SARS-CoV-2 NSP1. The test is described as above. As to the method:
as §1
As to B1, the yeast fitness gain was inactive: 0.00682.

As to B2, the yeast fitness gain is inactive: -0.000713.

On to B3, for which the yeast fitness gain is inactive: 0.0327.

B4: the yeast fitness gain was inactive: -0.0426.

A further test has as its target SARS-CoV-2 NSP10. The description is as above. As to the method: as §1
In the case of B1, the yeast fitness gain was inactive: 0.0311.

Regarding B2, the yeast fitness gain is inactive: -0.00265.

For B4, the yeast fitness gain was inactive: -0.0035.

In a further test the target is SARS-CoV-2 NSP12. Described as above. As to the method:
as §1
Consider B1, for which the yeast fitness gain was inactive: 0.0387.

With B2, the yeast fitness gain is active: 0.0526.

As to B4, the yeast fitness gain is inactive: 0.0445.

For a further test, the target named is SARS-CoV-2 NSP13. The test is described as above. As to the method:
as §1
In the case of B1, the yeast fitness gain is inactive: 0.0197.

B2: the yeast fitness gain is inactive: 0.0197.

On to B4, for which the yeast fitness gain was inactive: -0.0244.

The next test addresses SARS-CoV-2 NSP14. The description is as above. As to the method:
as §1
In the case of B1, the yeast fitness gain is inactive: -0.106.

With B2, the yeast fitness gain was inactive: -0.0184.

In the case of B4, the yeast fitness gain is inactive: -0.099.

A further test concerns the target SARS-CoV-2 NSP15. The description is as above. As to the method:
as §1
As for B1, the yeast fitness gain was inactive: 0.0587.

As for B2, the yeast fitness gain was inactive: -0.0261.

B4: the yeast fitness gain is inactive: -0.0451.

The target of the next test is SARS-CoV-2 NSP16. The test is described as above. As to the method:
as §1
Take B1: the yeast fitness gain is inactive: -0.0337.

For the molecule B2, the yeast fitness gain is inactive: 0.0125.

In the case of B4, the yeast fitness gain was inactive: -0.0017.

Another test addresses SARS-CoV-2 NSP2. The description is as above. As to the method:
as §1
Regarding B1, the yeast fitness gain is inactive: -0.0813.

In the case of B2, the yeast fitness gain is inactive: -0.0318.

Take B4: the yeast fitness gain was inactive: -0.143.

The target in another test is SARS-CoV-2 NSP4. The test is described as above. As to the method:
as §1
Consider B1, for which the yeast fitness gain is inactive: -0.132.

As for B2, the yeast fitness gain is inactive: -0.039.

Turning to B4, the yeast fitness gain is inactive: 0.0991.

The target of the next test is SARS-CoV-2 NSP5. Described as above. As to the method:
as §1
With B1, the yeast fitness gain is inactive: 0.0099.

As to B2, the yeast fitness gain was inactive: -0.000294.

On to B3, for which the yeast fitness gain is inactive: -0.0329.

With B4, the yeast fitness gain was inactive: -0.0154.

Another test deals with SARS-CoV-2 NSP6. The description is as above. As to the method:
as §1
For the molecule B1, the yeast fitness gain is inactive: 0.0369.

As for B2, the yeast fitness gain is inactive: 0.0391.

B3: the yeast fitness gain is inactive: 0.036.

For B4, the yeast fitness gain was inactive: 0.0189.

The target in a further test is SARS-CoV-2 NSP7. The description is as above. As to the method: as §1
In the case of B1, the yeast fitness gain is inactive: 0.0175.

Regarding B2, the yeast fitness gain is inactive: 0.0105.

As to B3, the yeast fitness gain is inactive: -0.116.

For the molecule B4, the yeast fitness gain is inactive: 0.0601.

A further test has as its target SARS-CoV-2 NSP8. The description is as above. As to the method:
as §1
In the case of B1, the yeast fitness gain was inactive: 0.0562.

With B2, the yeast fitness gain was inactive: 0.0308.

On to B3, for which the yeast fitness gain is inactive: -0.0768.

As for B4, the yeast fitness gain is inactive: 0.025.

The next test addresses SARS-CoV-2 NSP9. Described as above. As to the method: as §1
Regarding B1, the yeast fitness gain was inactive: 0.0177.

B2: the yeast fitness gain is inactive: -0.0281.

For the molecule B4, the yeast fitness gain was inactive: 0.017.

The target of a further test is SARS-CoV-2 ORF10. The test is described as above. As to the method: as §1
For the molecule B1, the yeast fitness gain is inactive: 0.0435.

For the molecule B2, the yeast fitness gain was inactive: 0.0111.

On to B3, for which the yeast fitness gain is inactive: -0.0164.

For the molecule B4, the yeast fitness gain was inactive: 0.0239.

In the next test the target is SARS-CoV-2 ORF3A. Described as above. As to the method:
as §1
Regarding B1, the yeast fitness gain was inactive: 0.0139.

With B2, the yeast fitness gain was inactive: -0.0116.

In the case of B3, the yeast fitness gain was inactive: 0.0478.

B4: the yeast fitness gain was inactive: 0.0254.

A further test deals with SARS-CoV-2 ORF3B. The description is as above. As to the method:
as §1
For the molecule B1, the yeast fitness gain is inactive: 0.0224.

For the molecule B2, the yeast fitness gain is inactive: 0.0125.

For B4, the yeast fitness gain was inactive: -0.0471.

A further test addresses SARS-CoV-2 ORF6. The description is as above. As to the method: as §1
Regarding B1, the yeast fitness gain is inactive: 0.00781.

Regarding B2, the yeast fitness gain is inactive: -0.00524.

For the molecule B4, the yeast fitness gain was inactive: 0.0273.

The target of the next test is SARS-CoV-2 ORF7A. The test is described as above. As to the method:
as §1
For B1, the yeast fitness gain is inactive: -0.0098.

With B2, the yeast fitness gain is inactive: -0.0304.

In the case of B4, the yeast fitness gain is inactive: -0.162.

For the next test, the target named is SARS-CoV-2 ORF7B. Described as above. As to the method: as §1
In the case of B1, the yeast fitness gain is inactive: 0.00756.

For B2, the yeast fitness gain was inactive: 0.0156.

Consider B4, for which the yeast fitness gain was inactive: 0.00319.

Another test concerns the target SARS-CoV-2 ORF8. Described as above. As to the method:
as §1
Take B1: the yeast fitness gain was inactive: -0.00334.

As to B2, the yeast fitness gain is inactive: -0.000375.

Consider B4, for which the yeast fitness gain is inactive: 0.00042.

Another test has as its target SARS-CoV-2 ORF9B. Described as above. As to the method: as §1
On to B1, for which the yeast fitness gain is inactive: -0.0157.

Regarding B2, the yeast fitness gain was inactive: -0.000338.

For B4, the yeast fitness gain is inactive: 0.0137.

Another test concerns the target SARS-CoV-2 ORF9Bwu (the 73-codon ORF). The description is as above. As to the method: as §1
In the case of B1, the yeast fitness gain is inactive: 0.0159.

For B2, the yeast fitness gain was inactive: 0.00525.

Turning to B4, the yeast fitness gain is inactive: 0.0519.

A further test has as its target SARS-CoV-2 S. The test is described as above. As to the method:
as §1
Take B1: the yeast fitness gain was inactive: 0.00574.

Take B2: the yeast fitness gain was inactive: 0.0117.

Regarding B4, the yeast fitness gain is inactive: 0.00963.

The values above are taken from the supplement of paper PMC11741623.
